# From PubChem BioAssay (Tox21)
# The inconclusive results got no clear call from the source; some entries with a clear call stand among them for comparison. For some of these results: A potency beside an inconclusive call is a rough fit, not a confirmed value. The source made the active and inactive calls. Unless noted, calls follow the shape of the full dose curve.
# Legend:
# [1] = target: Peroxisome proliferator-activated receptor gamma (Homo sapiens) (UniProt P37231); assay: qHTS assay to identify small molecule antagonists of the peroxisome proliferator-activated receptor gamma (PPARg) signaling pathway (AID 743191); details: HEK293H PPARg-UAS-bla, beta-lactamase ratio, antagonist, 17 h; ratio activity, negative = inhibition: at 62.6 µM (top of the series) unless noted; also: % is scaled to controls: 0 for no effect and ±100 for the full control effect; nearly all actives have a fitted effect of over 30% in size
# UniProt P37231, sequence (P37231 whole entry, looked up): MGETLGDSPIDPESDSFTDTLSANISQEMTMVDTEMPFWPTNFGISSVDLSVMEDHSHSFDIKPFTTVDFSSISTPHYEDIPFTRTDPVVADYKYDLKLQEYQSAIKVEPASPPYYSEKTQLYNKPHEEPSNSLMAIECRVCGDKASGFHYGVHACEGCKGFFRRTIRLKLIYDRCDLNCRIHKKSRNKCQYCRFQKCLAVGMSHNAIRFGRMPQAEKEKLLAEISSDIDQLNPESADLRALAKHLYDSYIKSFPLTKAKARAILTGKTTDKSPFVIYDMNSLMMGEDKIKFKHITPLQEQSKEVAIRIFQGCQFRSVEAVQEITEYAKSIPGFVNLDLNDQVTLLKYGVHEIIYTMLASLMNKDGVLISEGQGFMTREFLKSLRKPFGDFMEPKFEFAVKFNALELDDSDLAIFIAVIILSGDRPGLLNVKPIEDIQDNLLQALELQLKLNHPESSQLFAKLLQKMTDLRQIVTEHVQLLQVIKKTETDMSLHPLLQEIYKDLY
# Procedure, shortened: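 GeneBLAzer PPARg UAS-bla HEK293H cells carrying a UAS-driven beta-lactamase reporter were plated at 3000 cells/well, preincubated 5 h at 37C, then given compound for 17 h at 37C; LiveBLAzer B/G FRET substrate was read after 1 h at room temperature.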
# [2] = qHTS assay for small molecule agonists of the antioxidant response element (ARE) signaling pathway (AID 743202; active = well fitted activation curve with a large enough effect in the signal ratio in the repeat runs, not every such curve was filed as active; inconclusive = weak or mixed curves, or effect the other way; inactive = no such curve, though single readings can be large or run the other way; the % refers to the signal ratio; also: % is scaled to controls: 0 for no effect and ±100 for the full control effect); details: HepG2 ARE-bla reporter, beta-lactamase FRET, 16 h; activation: at 73.3 µM (top of the series) unless noted
# Procedure, shortened: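 Compounds delivered in DMSO to ARE-bla HepG2 cells (2,000 cells/well, pre-incubated 5 h) and left 16 h at 37 C. LiveBLAzer B/G FRET substrate then added for 2 h at RT before fluorescence reading.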
# [3] = qHTS assay for small molecule agonists of the antioxidant response element (ARE) signaling pathway - cell viability counter screen (AID 743203); also: potency is read from the fitted curve at half-maximal effect; nearly all actives have a fitted effect of over 55% in size
# Procedure, shortened: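 ARE-bla HepG2 cells were plated, rested 5 h at 37C/5% CO2, then exposed to compounds in DMSO for 16 h. Viability was read as CellTiter-Glo luminescence after 30 min at room temperature, in the same wells as the ARE screen.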
# [4] = qHTS assay for small molecule activators of the heat shock response signaling pathway - cell viability counter screen (AID 743209; active = well fitted curve in the direction sought with a large enough effect in the repeat runs; inconclusive = weak or mixed curves; inactive = no such curve, though single readings can be large; an effect the other way counts as inactive or inconclusive; also: potency is read from the fitted curve at half-maximal effect; nearly all actives have a fitted effect of over 50% in size); details: HSE-bla HeLa viability, CellTiter-Glo luminescence, 5 h; activity change, negative = cytotoxicity: at 62.6 µM (top of the series) unless noted
# Procedure, shortened: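 HSE-bla HeLa cells plated overnight, then exposed to Tox21 compounds (23 nL in DMSO) for 5 h at 37 C. After the bla reporter read, CellTiter-Glo was added in the same wells and luminescence read after 30 min at room temperature.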
# [5] = qHTS assay for small molecule activators of the heat shock response signaling pathway (AID 743210; active = well fitted activation curve with a large enough effect in the signal ratio in the repeat runs, with a control signal flat, not every such curve was filed as active; inconclusive = weak or mixed curves; the % refers to the signal ratio;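 also: HeLa cells with beta-lactamase reporter driven by heat shock elements; % is scaled to controls: 0 for no effect and ±100 for the full control effect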); details: HeLa HSE-bla reporter, beta-lactamase ratio, 5 h; activation: at 62.6 µM (top of the series)
# Procedure, shortened: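 Reporter gene assay: HeLa cells stably bearing an HSE-bla construct, compound treatment 5 h at 37 C, LiveBLAzer substrate 2.5 h at RT, fluorescence intensity.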
# [6] = target: Peroxisome proliferator-activated receptor delta (Homo sapiens) (UniProt Q03181); assay: qHTS assay to identify small molecule agonists of the peroxisome proliferator-activated receptor delta (PPARd) signaling pathway (AID 743212); details: HEK293H PPARd-UAS-bla, beta-lactamase FRET ratio, 17 h; activation: at 62.6 µM (top of the series) unless noted; also: % is scaled to controls: 0 for no effect and ±100 for the full control effect
# UniProt Q03181, sequence (Q03181 whole entry, looked up): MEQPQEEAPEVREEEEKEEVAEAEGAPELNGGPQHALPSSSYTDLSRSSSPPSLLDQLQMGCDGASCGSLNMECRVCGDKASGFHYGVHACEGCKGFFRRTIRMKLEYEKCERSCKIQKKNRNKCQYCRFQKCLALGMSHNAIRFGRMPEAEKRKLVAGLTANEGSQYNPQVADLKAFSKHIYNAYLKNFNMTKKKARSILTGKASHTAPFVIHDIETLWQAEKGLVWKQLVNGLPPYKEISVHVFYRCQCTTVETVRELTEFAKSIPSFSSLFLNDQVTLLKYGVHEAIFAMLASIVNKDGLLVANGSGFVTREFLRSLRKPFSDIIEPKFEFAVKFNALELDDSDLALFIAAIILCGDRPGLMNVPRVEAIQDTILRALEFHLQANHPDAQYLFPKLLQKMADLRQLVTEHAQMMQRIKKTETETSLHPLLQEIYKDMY
# Procedure, shortened: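 A PPARd-bla HEK293H line with beta-lactamase under an Upstream Activator Sequence is treated with compounds at 37 C. Substrate loading for 2 h at room temperature precedes the fluorescence measurement.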
# [7] = qHTS assay to identify small molecule antagonists of the peroxisome proliferator-activated receptor delta (PPARd) signaling pathway - cell viability counter screen (AID 743213; active = well fitted curve in the direction sought with a large enough effect in the repeat runs; inconclusive = weak or mixed curves; inactive = no such curve, though single readings can be large; an effect the other way counts as inactive or inconclusive; also: potency is read from the fitted curve at half-maximal effect; nearly all actives have a fitted effect of over 50% in size); details: PPARd-bla HEK293H viability, CellTiter-Glo luminescence, 17 h; viability change, negative = cytotoxic: at 62 µM (top of the series) unless noted
# Procedure, shortened: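 Cytotoxicity counter screen: CellTiter-Glo luminescence read 30 min after addition, in the same wells as the reporter assay. There, PPARd UAS-bla HEK293H cells (3000/well) were treated 17 h at 37 C with compound and 300 nM L165041.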
# [8] = target: Peroxisome proliferator-activated receptor delta (Homo sapiens) (UniProt Q03181); assay: qHTS assay to identify small molecule antagonists of the peroxisome proliferator-activated receptor delta (PPARd) signaling pathway (AID 743215; active = well fitted inhibition curve with a large enough effect in the signal ratio in the repeat runs, not every such curve was filed as active; inconclusive = weak or mixed curves, or effect the other way; inactive = no such curve, though single readings can be large or run the other way; the % refers to the signal ratio;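 also: cells stimulated with agonist L165041 at 300 nM final during compound exposure; % is scaled to controls: 0 for no effect and ±100 for the full control effect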); details: HEK293H PPARd-UAS-bla, beta-lactamase FRET ratio, antagonist, 17 h; ratio activity, negative = inhibition: at 62 µM (top of the series) unless noted
# Procedure, shortened: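 PPARd-bla HEK293H cells (UAS-bla reporter) preincubated 5 h, then given compound plus 300 nM final L165041 agonist for 17 h at 37 C. Beta-lactamase activity read by LiveBLAzer B/G FRET substrate fluorescence after 2 h at room temperature.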
# [9] = qHTS assay to identify small molecule antagonists of the farnesoid-X-receptor (FXR) signaling pathway - cell viability counter screen (AID 743221; active = well fitted cell-killing curve with a large enough effect in the repeat runs, not every such curve was filed as active; inconclusive = weak or mixed curves, or effect the other way; inactive = no such curve, though single readings can be large or run the other way; also: potency is read from the fitted curve at half-maximal effect; nearly all actives have a fitted effect of over 50% in size); details: FXR-bla HEK293T viability, CellTiter-Glo luminescence, 16 h; activity change, negative = cytotoxicity: at 62.6 µM (top of the series) unless noted
# Procedure, shortened: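 Cytotoxicity counter screen run in the FXR-bla reporter wells: HEK 293T cells exposed to compound with 50 uM (final) chenodeoxycholic acid for 16 h, 37 C, then viability measured by CellTiter-Glo luminescence after 30 min, room temperature.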
# [10] = target: Vitamin D3 receptor (Homo sapiens) (UniProt P11473); assay: qHTS assay to identify small molecule antagonists of the vitamin D receptor (VDR) signaling pathway (AID 743223; active = well fitted inhibition curve with a large enough effect in the signal ratio in the repeat runs, not every such curve was filed as active; inconclusive = weak or mixed curves, or effect the other way; inactive = no such curve, though single readings can be large or run the other way; the % refers to the signal ratio; also: potency is read from the fitted curve at half-maximal effect); details: VDR-UAS-bla HEK293T, beta-lactamase FRET ratio, 16 h; activity change, negative = inhibition: at 61 µM (top of the series) unless noted
# UniProt P11473, sequence (P11473 whole entry, looked up): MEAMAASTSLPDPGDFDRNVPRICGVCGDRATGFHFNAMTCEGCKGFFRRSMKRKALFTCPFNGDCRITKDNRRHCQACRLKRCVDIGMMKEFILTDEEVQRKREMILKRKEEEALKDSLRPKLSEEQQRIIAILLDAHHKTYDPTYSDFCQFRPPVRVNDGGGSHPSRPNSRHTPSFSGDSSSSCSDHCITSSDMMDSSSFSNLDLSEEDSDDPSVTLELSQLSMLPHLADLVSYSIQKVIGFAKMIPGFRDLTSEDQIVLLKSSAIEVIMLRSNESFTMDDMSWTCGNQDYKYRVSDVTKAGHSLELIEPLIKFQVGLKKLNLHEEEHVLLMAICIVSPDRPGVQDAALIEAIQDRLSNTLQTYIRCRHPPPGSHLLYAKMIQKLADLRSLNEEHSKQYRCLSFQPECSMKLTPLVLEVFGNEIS
# Procedure, shortened: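 Antagonist mode: compound added to VDR-bla cells alongside agonist 1alpha,25-dihydroxyvitamin D3 (3 nM final), incubation 16 h at 37C. Read-out is LiveBLAzer FRET fluorescence, 2 h at room temperature.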
# [11] = qHTS assay to identify small molecule antagonists of the vitamin D receptor (VDR) signaling pathway - cell viability counter screen (AID 743225; active = well fitted curve in the direction sought with a large enough effect in the repeat runs; inconclusive = weak or mixed curves; inactive = no such curve, though single readings can be large; an effect the other way counts as inactive or inconclusive; also: potency is read from the fitted curve at half-maximal effect; nearly all actives have a fitted effect of over 50% in size); details: VDR-bla HEK293T viability, CellTiter-Glo luminescence, 16 h; viability change, negative = cytotoxic: at 61 µM (top of the series) unless noted
# Procedure, shortened: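 Cytotoxicity counter screen read by CellTiter-Glo luminescence (30 min, room temperature) in the same wells as the VDR-bla antagonist readout. HEK 293T VDR-UAS-bla cells had 16 h at 37C with compound and 3 nM (final) 1-alpha,25-dihydroxyvitamin D3, then 2 h with FRET substrate.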
# [12] = qHTS assay to identify small molecule agonists of the NFkB signaling pathway - cell viability counter screen (AID 1159515); also: nearly all actives have a fitted effect of over 55% in size; also: potency is read from the fitted curve at half-maximal effect
# Procedure, shortened: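 NFkB-bla ME-180 cells, 2,000/well, plated overnight at 37 C; compound added for 5 hr at 37 C. Viability read in the same wells as the bla reporter, by CellTiter-Glo luminescence after 30 min at room temperature.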
# [13] = qHTS assay to identify small molecule agonists of the endoplasmic reticulum stress response signaling pathway (AID 1159516; active = well fitted activation curve with a large enough effect in the signal ratio in the repeat runs, not every such curve was filed as active; inconclusive = weak or mixed curves, or effect the other way; the % refers to the signal ratio; also: potency is read from the fitted curve at half-maximal effect); details: ESRE-bla HeLa, ER stress beta-lactamase reporter, 5 h; activation: at 61 µM (top of the series) unless noted
# Procedure, shortened: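 CellSensor ESRE-bla HeLa cells, 1,500 per well, plated overnight, then exposed to compounds for 5 hr at 37 C. Beta-lactamase reporter read with LiveBLAzer B/G FRET substrate after 2 hr at room temperature, 405 nm excitation, 460 and 530 nm emission.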
# [14] = qHTS assay to identify small molecule antagonists of the peroxisome proliferator-activated receptor gamma (PPARg) signaling pathway - cell viability counter screen (AID 743194; active = well fitted curve in the direction sought with a large enough effect in the repeat runs; inconclusive = weak or mixed curves; inactive = no such curve, though single readings can be large; an effect the other way counts as inactive or inconclusive; also: potency is read from the fitted curve at half-maximal effect; nearly all actives have a fitted effect of over 55% in size); details: PPARg-bla HEK293H viability, CellTiter-Glo luminescence, 17 h; Potency: co-treated with 50 nM rosiglitazone unless noted; activity change, negative = cytotoxicity: at 62.6 µM (top of the series), co-treated with 50 nM rosiglitazone unless noted
# Procedure, shortened: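 PPARg-UAS-bla HEK293H cells were plated, rested 5 h at 37 C, then treated with compounds plus rosiglitazone (50 nM final) for 17 h at 37 C; viability was then read by CellTiter-Glo luminescence after 30 min at room temperature.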
# [15] = qHTS assay to identify small molecule agonists of the peroxisome proliferator-activated receptor delta (PPARd) signaling pathway - cell viability counter screen (AID 743211; active = well fitted curve in the direction sought with a large enough effect in the repeat runs; inconclusive = weak or mixed curves; inactive = no such curve, though single readings can be large; an effect the other way counts as inactive or inconclusive; also: potency is read from the fitted curve at half-maximal effect; nearly all actives have a fitted effect of over 55% in size); details: PPARd-bla HEK293H viability, CellTiter-Glo luminescence, 17 h; activity change, negative = cytotoxicity: at 62.6 µM (top of the series) unless noted
# Procedure, shortened: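 Viability was measured as CellTiter-Glo luminescence (30 min, room temperature) in the same wells as the beta-lactamase readout. GeneBLAzer PPARd UAS-bla HEK293H cells received compound after 5 h plating and were incubated 17 h at 37 C.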
# [16] = target: Bile acid receptor (Homo sapiens) (UniProt Q96RI1); assay: qHTS assay to identify small molecule antagonists of the farnesoid-X-receptor (FXR) signaling pathway (AID 743217; active = well fitted inhibition curve with a large enough effect in the signal ratio in the repeat runs, not every such curve was filed as active; inconclusive = weak or mixed curves, or effect the other way; inactive = no such curve, though single readings can be large or run the other way; the % refers to the signal ratio; also: potency is read from the fitted curve at half-maximal effect); details: HEK293T FXR-UAS-bla, beta-lactamase ratio, CDCA-stimulated, 16 h; activity change, negative = inhibition: at 62.6 µM (top of the series) unless noted
# UniProt Q96RI1, sequence (Q96RI1 whole entry, looked up): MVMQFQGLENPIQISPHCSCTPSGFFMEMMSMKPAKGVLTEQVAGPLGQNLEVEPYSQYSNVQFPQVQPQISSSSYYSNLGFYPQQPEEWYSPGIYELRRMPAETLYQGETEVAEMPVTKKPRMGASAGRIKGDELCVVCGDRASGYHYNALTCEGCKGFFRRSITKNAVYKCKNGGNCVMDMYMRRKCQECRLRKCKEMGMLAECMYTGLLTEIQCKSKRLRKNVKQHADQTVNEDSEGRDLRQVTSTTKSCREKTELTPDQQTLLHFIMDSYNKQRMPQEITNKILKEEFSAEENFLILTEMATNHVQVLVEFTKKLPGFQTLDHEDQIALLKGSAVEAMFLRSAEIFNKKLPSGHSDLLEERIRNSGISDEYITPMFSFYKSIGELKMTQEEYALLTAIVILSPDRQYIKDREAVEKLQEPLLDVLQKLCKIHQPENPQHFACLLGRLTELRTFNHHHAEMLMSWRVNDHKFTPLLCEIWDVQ
# Procedure, shortened: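 FXR-UAS-bla HEK 293T cells (beta-lactamase reporter) given compound plus chenodeoxycholic acid (50 uM final), 16 h at 37C. LiveBLAzer B/G FRET substrate added for 2 h at room temperature; fluorescence read.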
# [17] = qHTS assay to identify small molecule agonists of the vitamin D receptor (VDR) signaling pathway - cell viability counter screen (AID 743224; active = well fitted curve in the direction sought with a large enough effect in the repeat runs; inconclusive = weak or mixed curves; inactive = no such curve, though single readings can be large; an effect the other way counts as inactive or inconclusive)
# Procedure, shortened: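 VDR-bla cells, 4 h after plating, exposed to compounds for 16 h at 37C; viability then read in the same wells as CellTiter-Glo luminescence after 30 min at room temperature, following the bla FRET read.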
# Tags tell the direction and shape of the fitted curve or compound fluorescence and quenching.
compound,measurement,setting,value
OCCCBr,"ratio activity, negative = inhibition",[1],inconclusive: 23.8% [at 81.1 µM]
same,activation,[2],inconclusive: -11.6%
same,Potency,[3],"inconclusive: 0.243 µM [cytotoxic, single point]"
same,Potency,[4],"inconclusive: 0.0078 µM [rising, full curve, poor fit]"
same,Potency,[5],inactive
same,activation,[6],inconclusive: -4.11% [at 81.1 µM]
same,Potency,[7],"inconclusive: 0.0012 µM [cytotoxic, full curve, poor fit]"
same,"ratio activity, negative = inhibition",[8],inconclusive: 12.6%
same,Potency,[9],"inconclusive: 0.616 µM [falling, full curve, poor fit]"
same,Potency,[10],inconclusive: 54.9 µM
same,Potency,[11],"inconclusive: 1.95 µM [cytotoxic, single point]"
same,Potency,[12],"inconclusive: 24.5 µM [cytotoxic, full curve]"
same,Potency,[13],"inconclusive: 43.6 µM [fluorescent, partial curve, poor fit]"
CCOP(=O)(OCC)SCCSCC,Potency,[12],"inconclusive: 46.8 µM [rising, partial curve, poor fit]"
CC(C)(C)c1cc([N+](=O)[O-])cc(C(C)(C)C)c1O,Potency,[1],inactive
same,Potency,[14],active: 6.16 µM
same,Potency,[3],"inconclusive: 4.86 µM [cytotoxic, full curve]"
same,Potency,[15],inconclusive: 24.5 µM [cytotoxic]
same,Potency,[8],inactive
same,Potency,[16],inconclusive: 34.7 µM
same,Potency,[9],"inconclusive: 61.6 µM [falling, single point]"
same,"activity change, negative = inhibition",[10],inconclusive: -31.1%
same,Potency,[17],active: 12.3 µM
same,Potency,[11],active: 12.3 µM
same,Potency,[12],"inconclusive: 0.977 µM [rising, full curve, poor fit]"
same,Potency,[13],"inconclusive: 0.871 µM [rising, partial curve, poor fit]"
COC(=O)C(C)Oc1ccc(Oc2ccc(Cl)cc2Cl)cc1 (stereo not drawn),Potency,[12],inactive
same,Potency,[13],inactive
